Results: patent US4065570A (priority 1975, dated 1977)
“And” between values parts separate entries of the source, which are not always exact repeats. Identical values can stand only once.

System: Coxsackie B3
Experiment: microbe, parasite or virus in culture

COc1ccc(C=C2C(=O)N(C(C)=O)C(=O)N2C(C)=O)cc1OC [Example 32, N,N-diacetylated 5-(3',4'-dimethoxybenzal) hydantoin]
% Inhibition (1 μg/ml): 50% and 75%
inhibition at 5 µg/mL (Enterovirus B, B3, Vero, 5 μg/ml): 97%
inhibition at 10 µg/mL (Enterovirus B, B3, Vero, 10 μg/ml): 100%
inhibition at 50 µg/mL (Enterovirus B, B3, Vero, 50 μg/ml): 100%
